# Measurements as given in PubChem BioAssay AID686979 (National Center for Advancing Translational Sciences (NCATS), 2013).
# Values joined by “and” are separate entries in the source; they are usually repeats but may differ in a detail not shown here. Equal values may be shown once. About 50,000 (12%) of roughly 420,000 compounds were called active. The shares of active, inactive and inconclusive entries below differ from those in the screen. The call rests on the fitted dose curve; in most records, active means well fitted inhibition curve with a large enough effect; inconclusive means small, poorly fitted or top-dose-only effect; inactive means flat fitted curve, though single readings scatter. Where the call is inconclusive, the potency comes from a doubtful curve fit.
# Assay: qHTS for Inhibitors of human tyrosyl-DNA phosphodiesterase 1 (TDP1): qHTS in cells in presence of CPT; further: nearly all actives have a fitted effect of over 55% in size
# Conditions: chicken DT40 Tdp1-/-;hTDP1 cells + 20 nM CPT, ATP luminescence, 48 h
# Procedure, shortened: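 Chicken DT40 Tdp1-/- cells complemented with human TDP1, 400 cells/well, exposed to compounds plus 20 nM camptothecin for at least 48 h at 37 C; viability read as ATP content by CellTiter-Glo luminescence.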
# [1] = activity change, negative = growth inhibition: at 46.2 µM (top of the series) unless noted
# On the % scale 0 is the no-effect control and ±100 the full control effect; potency means the concentration at half of the fitted maximal effect; tags describe the fitted curve by direction and shape.
smiles,measurement,setting,value
O=[N+]([O-])c1cc([N+](=O)[O-])c(Oc2c(F)ccc(F)c2F)cc1NN1CCCCC1,Potency,[1],"inconclusive: 20.6 µM [inhibitor, single point]"
CCC(Sc1ncccc1C(=O)Oc1ccccc1Cl)C(=O)Nc1ccccc1OC (configuration not stated),Potency,[1],"inconclusive: 16.4 µM [inhibitor, partial curve, poor fit]"
Cn1nc(C(C)(C)C)cc1NC(=O)C1(C)CCN1C(=O)C1(c2ccccc2)CC1 (configuration not stated),Potency,[1],"inconclusive: 16.4 µM [inhibitor, partial curve]"
Cc1ccc(NC(=O)COC(=O)Cc2ccsc2)cc1S(=O)(=O)N(C)C,Potency,[1],inactive
O=C(O)c1cscn1,Potency,[1],"inconclusive: 29.1 µM [inhibitor, single point]"
O=C(Nc1cccnc1)c1ccc([N+](=O)[O-])s1,Potency,[1],active: 0.731 µM
Cc1ccc(NS(=O)(=O)c2ccc(C(=O)NCc3ccncc3)cc2)cc1,Potency,[1],"inconclusive: 29.1 µM [inhibitor, single point]"
CC[C@H](C)Cc1cn([C@@H](CCCN=C(NC(=O)OC(C)(C)C)NC(=O)OC(C)(C)C)C(=O)NCCCCCCCCCCC(=O)N2CCN(C(=O)OC(C)(C)C)CC2)nn1,Potency,[1],active: 9.2 µM
COc1ccc(OCCCn2cc(/C=C3/C(=N)N4C=C(C)SC4=NC3=O)c3ccccc32)cc1,Potency,[1],"inconclusive: 20.6 µM [inhibitor, partial curve]"
Cc1ccc(-n2c(O)c(C=NCc3ccccn3)c3ccccc3c2=O)cc1C,Potency,[1],active: 8.2 µM
O=C(NCC(c1cccs1)N1CCOCC1)c1cn(-c2ccccc2)nc1-c1ccccc1 (configuration not stated),Potency,[1],"inconclusive: 25.9 µM [inhibitor, single point]"
Cc1csc(NC(=O)c2cccc(S(=O)(=O)N3CCN(C)CC3)c2)n1,Potency,[1],"inconclusive: 29.1 µM [inhibitor, single point]"
Cc1nn(C)c2c1c(C(F)(F)F)cc(=O)n2C(C)C(=O)NCCC(C)C (configuration not stated),Potency,[1],active: 16.4 µM
Cc1cc(C(=O)N2CCCC(C(=O)c3ccc4ccccc4c3)C2)nn1C (configuration not stated),Potency,[1],"inconclusive: 18.4 µM [inhibitor, single point]"
CCOc1ccccc1Nc1nc(-c2sc(C)nc2C)cs1,Potency,[1],"inconclusive: 29.1 µM [inhibitor, single point]"
CCN(CC)c1ccc(NC(=O)c2ccccn2)cc1S(=O)(=O)Nc1ccccc1OC,Potency,[1],active: 16.4 µM
CCCC(=O)N1CCC1(C)C(=O)Nc1cc(-c2ccccc2)nn1C (configuration not stated),Potency,[1],"inconclusive: 1.84 µM [inhibitor, full curve, poor fit]"
COc1ccc(N=C2NC(=O)/C(=C\C=C\c3ccccc3)S2)cc1,Potency,[1],"inconclusive: 29.1 µM [inhibitor, single point]"
Cc1ccc2c(=O)c(C(=O)c3ccccc3)cn(CC(=O)Nc3ccc(C)c(Cl)c3)c2n1,Potency,[1],inactive
Cc1ccc(C)c(NC(=O)Cn2nnc(C(=O)NCc3cccs3)c2N)c1,Potency,[1],"inconclusive: 3.66 µM [inhibitor, single point]"
CCOc1ccc(OCC)c(NC(=O)CN(c2ccc(OC)cc2)S(=O)(=O)c2c(C)noc2C)c1,Potency,[1],"inconclusive: 29.1 µM [inhibitor, single point]"
O=C(NCc1cccc(OC(F)(F)F)c1)c1cccc2c1C(=O)c1ccc(-c3ccc(F)cc3OCc3ccccc3)cc1S2(=O)=O,Potency,[1],"inconclusive: 18.4 µM [inhibitor, partial curve]"
CCCCC(=O)Nc1ccc(C(=O)N2CCN(C)CC2)cc1,Potency,[1],inactive
CCN(CC)c1ccc(C2C(C(=O)OCCOC(C)C)=C(C)NC3=C2C(=O)CCC3)cc1 (configuration not stated),Potency,[1],"inconclusive: 29.1 µM [inhibitor, single point]"
Cc1ccc(C(=O)N2CCCN(c3nc4cc5c(cc4cc3C#N)OCO5)CC2)cc1,Potency,[1],"inconclusive: 29.1 µM [inhibitor, single point]"
COc1ccccc1N1CCN(C(=O)C(C)N(c2ccc(C)cc2)S(C)(=O)=O)CC1 (configuration not stated),Potency,[1],"inconclusive: 23.1 µM [inhibitor, single point]"
C=C1C[C@H](O)[C@@H]2[C@H](OC(=O)[C@H]2C)[C@H]2[C@H](C)[C@@H](O)C[C@@H]12,Potency,[1],inactive
Nc1nc[nH]c(=O)c1N=Cc1ccccc1,Potency,[1],inactive
O=C1c2ccccc2C(c2nnnn2-c2ccc3c(c2)OCCO3)N1CCc1ccccc1F (configuration not stated),Potency,[1],active: 14.6 µM
CCn1c(CC(=O)Nc2ccccc2F)nnc1SCC(=O)NC1CCCC1,Potency,[1],inactive
Cc1cc2c(c(C)c1Br)C(c1ccc3c(c1)OCO3)CC(=O)O2 (configuration not stated),Potency,[1],inactive
CN(C)c1ccc(/C=N/Nc2cccc(C(=O)O)c2)cc1,Potency,[1],"inconclusive: 23.1 µM [inhibitor, partial curve, poor fit]"
O=C(Nc1cccc(Cl)c1)N1CCCC1,Potency,[1],active: 16.4 µM
CC(=O)c1c(C)[nH]c(C(=O)CN2C(=O)NC(CCc3ccccc3)C2=O)c1C (configuration not stated),Potency,[1],"inconclusive: 29.1 µM [inhibitor, single point]"
S=C1NC2(CCCCC2)N=C1c1ccccc1,Potency,[1],"inconclusive: 29.1 µM [inhibitor, single point]"
Cc1ccc(/C=C/C(=O)O)cc1S(=O)(=O)N1CCc2ccccc21,Potency,[1],inactive
COc1ccc(Br)c(C(=O)OCC(=O)NC(=O)NC2CCCC2)c1,Potency,[1],"inconclusive: 29.1 µM [inhibitor, single point]"
Cn1cc(S(=O)(=O)N2CCOCC2)cc1C(=O)NCc1ccccc1Cl,Potency,[1],inactive
COc1cc(OC)c(C2CC(=O)N3CN(C)CSC3=C2C#N)cc1OC (configuration not stated),Potency,[1],"inconclusive: 0.146 µM [inhibitor, full curve, poor fit]"
COc1ccc(CN2CCN(c3ccccn3)CC2)c(OC)c1C,Potency,[1],"inconclusive: 13 µM [inhibitor, partial curve] and inconclusive: 23.1 µM [inhibitor, single point]"
O=C(O)c1ccc2cccc(O)c2n1,Potency,[1],inactive
Cc1ccnc(NC(c2ccsc2)c2ccc3ccc(C)nc3c2O)c1 (configuration not stated),Potency,[1],inactive
CCOc1ccc(S(=O)(=O)n2ccc(C)n2)c2ccccc12,Potency,[1],"inconclusive: 20.6 µM [inhibitor, single point]"
C[C@@H](NC(=O)c1nc[nH]c1C(=O)NCc1ccccc1)c1ccccc1,Potency,[1],"inconclusive: 29.1 µM [inhibitor, single point]"
CCCCCCCCN1C(=O)[C@H](CC(=O)NCc2cccc(C(F)(F)F)c2)C[C@@]2(C(=O)OCC)CCC=C12,Potency,[1],"inconclusive: 29.1 µM [inhibitor, single point]"
O=c1[nH]c(=O)n([C@H]2C[C@H](O)[C@@H](CO)O2)cc1Br,Potency,[1],"inconclusive: 29.9 µM [inhibitor, single point] and inconclusive: 6.68 µM [inhibitor, full curve, poor fit] and inconclusive: 7.31 µM [inhibitor, partial curve]"
Cc1cc(CN2CCN(CC(=O)Nc3cc(C(F)(F)F)ccc3-n3cncn3)CC2)no1,Potency,[1],"inconclusive: 20.6 µM [inhibitor, single point]"
Cc1ccc(N2CCN(S(=O)(=O)c3ccc(-n4cnnn4)cc3)CC2)c(C)c1,"activity change, negative = growth inhibition",[1],inconclusive: -34.6% [inhibitor]
same,"activity change, negative = growth inhibition",at 46.2 µM (top of the series),inactive: -22.6%
COc1cc2[nH]c(=O)n3nc(-c4ccccc4)nc3c2cc1OC,Potency,[1],active: 23.1 µM
COc1ccc(NC(=O)CSc2nc(C(C)C)nc3c2c(=O)n(C)c(=O)n3C)c(OC)c1,Potency,[1],inactive
COc1ccc(/C(=C\C(=O)O)c2nccc3cc(OC)c(OC)cc23)cc1OC,"activity change, negative = growth inhibition",[1],inactive: 9.21% [at 9.04 µM]
CSc1ccc(-c2cc(=O)c3ccccc3o2)cc1,Potency,[1],"inconclusive: 16.4 µM [inhibitor, partial curve, poor fit]"
COc1cc2c(cc1OC)C(c1cc3cc4c(cc3[nH]c1=O)OCO4)N(C(=O)C1CC1)CC2 (configuration not stated),Potency,[1],inactive
CCCCOCCCNC(=O)c1cccc(OC)c1,"activity change, negative = growth inhibition",[1],inconclusive: -31.8% [inhibitor]
CCOC(=O)Nc1ccc2c(c1)N(C(=O)N(CC)CC)c1ccccc1CC2,Potency,[1],"inconclusive: 25.9 µM [inhibitor, single point]"
COc1ccc(-n2c(=O)c3c4c(sc3n(Cc3ccc(C(C)(C)C)cc3)c2=O)CCC4)c(OC)c1,Potency,[1],"inconclusive: 16.4 µM [inhibitor, single point]"
Cc1nc(SCC(=O)Nc2nc3ccccc3s2)c(C#N)c(C)c1C,Potency,[1],"inconclusive: 18.4 µM [inhibitor, single point]"
Cc1ccc(Cl)cc1N1CCN(C(=O)c2ccc3c(c2)N(Cc2ccccc2)CCS3)CC1,Potency,[1],active: 16.4 µM
COc1cccc(Cn2cnc3c(sc4nc(C)cc(C)c43)c2=O)c1,Potency,[1],inactive
O=C(Nc1ccc(S(=O)(=O)N2CCCC2)cc1)c1cc(=O)c2ccccc2o1,Potency,[1],"inconclusive: 18.4 µM [inhibitor, single point]"
CCCCn1nnnc1C(c1ccccc1)N1CCN(CCN2CCOCC2)CC1 (configuration not stated),Potency,[1],inactive
COc1ccc(-c2cc(C(=O)NCc3ccco3)c3ccccc3n2)c(OC)c1,Potency,[1],"inconclusive: 29.1 µM [inhibitor, single point]"
O=C(Nc1ccc2ccccc2c1)C(c1ccccc1)C1CCCC1 (configuration not stated),Potency,[1],"inconclusive: 29.1 µM [inhibitor, single point]"
CC1(C(=O)NS(=O)(=O)Cc2cccc(Cl)c2)CCN1C(=O)C1(c2ccc(Cl)cc2)CC1 (configuration not stated),Potency,[1],"inconclusive: 29.1 µM [inhibitor, single point]"
OCCN1CCN(c2cc(-c3ccc4ccccc4c3)nc3ccnn23)CC1,Potency,[1],active: 18.4 µM
Cc1ccc(Cn2ccc(NC(=O)c3cc(-c4ccc(Br)cc4)on3)n2)cc1,Potency,[1],"inconclusive: 2.06 µM [inhibitor, single point]"
